# From PubChem BioAssay AID488969 (Vanderbilt High Throughput Screening Facility, 2010)
# Whole data set: some 110,000 compounds, median “z-score” near -0.1, cut for the highest 2% near 2. The list shows a part of the results. Activity calls are given as the source filed them.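 Rule for the calls: active = z-score in the third read window above 3 or below -3; inactive = the rest.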
# Molecular target: Metabotropic glutamate receptor 8 (Rattus norvegicus) (UniProt P70579)
# Experiment: mGluR8 Gi/Go-coupled signaling modulation – cell-based, rat, thallium flux, HTS, primary screen (AID 488969)
# Conditions: HEK293 rat mGluR8, GIRK (G protein-gated inwardly rectifying potassium channel) thallium flux, FluoZin2; at 10 µM; stronger effect = higher value; submaximal glutamate (EC20) added with thallium
# Sequence of UniProt P70579 (P70579 whole entry, looked up): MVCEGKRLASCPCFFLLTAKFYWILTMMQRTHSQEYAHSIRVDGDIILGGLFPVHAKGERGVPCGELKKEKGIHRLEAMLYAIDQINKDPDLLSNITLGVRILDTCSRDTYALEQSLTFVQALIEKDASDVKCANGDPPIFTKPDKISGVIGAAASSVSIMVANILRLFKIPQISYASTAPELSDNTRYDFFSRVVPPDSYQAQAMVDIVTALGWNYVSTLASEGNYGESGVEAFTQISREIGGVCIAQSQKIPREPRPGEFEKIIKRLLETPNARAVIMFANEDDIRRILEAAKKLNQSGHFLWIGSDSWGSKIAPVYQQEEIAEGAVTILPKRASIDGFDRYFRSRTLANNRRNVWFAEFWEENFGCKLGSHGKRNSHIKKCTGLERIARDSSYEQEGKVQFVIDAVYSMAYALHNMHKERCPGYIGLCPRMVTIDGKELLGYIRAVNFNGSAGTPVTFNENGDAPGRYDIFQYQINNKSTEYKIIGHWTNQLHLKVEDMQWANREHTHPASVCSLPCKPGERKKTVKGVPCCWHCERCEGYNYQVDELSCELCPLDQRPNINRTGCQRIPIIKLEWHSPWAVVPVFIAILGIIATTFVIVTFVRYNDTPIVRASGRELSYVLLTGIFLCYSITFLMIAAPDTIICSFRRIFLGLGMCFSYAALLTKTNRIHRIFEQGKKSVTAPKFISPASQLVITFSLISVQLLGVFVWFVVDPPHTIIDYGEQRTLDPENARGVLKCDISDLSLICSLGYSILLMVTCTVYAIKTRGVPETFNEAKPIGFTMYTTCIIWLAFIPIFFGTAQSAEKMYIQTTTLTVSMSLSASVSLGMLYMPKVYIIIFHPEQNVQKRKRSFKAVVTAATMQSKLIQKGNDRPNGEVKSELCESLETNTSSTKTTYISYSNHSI
row,Structure (SMILES),z-score
1,COc1cc(OC)cc(C(=O)NC(=S)N2CCN(c3ccc(C(F)(F)F)cc3[N+](=O)[O-])CC2)c1,active: 4.05
2,Cc1noc(NS(=O)(=O)c2ccc(N3Cc4ccccc4C3=O)cc2)c1C,0.00277
3,CC1=C(C(N)=O)C(c2ccccc2)n2nc(-c3ccncc3)nc2N1 (stereo unspecified),0.846
4,NC(=O)CSc1nc2scc(-c3ccco3)c2c(=O)n1-c1ccccc1,-0.118
5,OC(CN1C2=NCCN2c2ccccc21)c1ccc(Br)cc1 (stereo unspecified),0.254
6,NC(=O)c1ccc(-n2nnnc2Oc2ccccc2)cc1,-0.23
7,Cc1ccc(S(=O)(=O)CC(C)N2CCN(C3CCCCC3)CC2)cc1 (stereo unspecified),1.44
8,O=C(COC(=O)C12CC3CC(CC(C3)C1)C2)Nc1ncc(Cl)cc1Cl,-0.129
9,Cc1nn(C(=O)c2ccco2)c(C)c1CN1C(=O)c2ccccc2C1=O,0.109
10,O=C(Cc1c[nH]c2ccccc12)OCCOC(=O)Cc1c[nH]c2ccccc12,0.897
11,CCN(CC)C(=O)c1cc(-c2ccccc2OC)on1,-0.301
12,O=C(c1cc(C2CC2)on1)N1CCN(C(c2ccccc2)c2ccccc2)CC1,0.806
13,NC(=O)CC1(CC(=O)O)CCCCC1,0.0592
14,O=C(O)CCc1nn2cc(-c3ccccc3)nc2[nH]c1=O,0.171
15,COc1cccc2[nH]c3c(N4CC(C)CC(C)C4)ncnc3c12 (stereo unspecified),-0.272
16,O=S1(=O)CC2N=C(N(Cc3ccc(F)cc3Cl)c3ccccc3F)SC2C1 (stereo unspecified),-0.36
17,O=C(O)CCc1ccc(-c2ccc(F)cc2)n1CC1CCCO1 (stereo unspecified),0.138
18,COc1ccccc1NC(=O)c1cccnc1,0.226
19,CCC(C)NC(=O)c1cn(CC)c2ccc(S(=O)(=O)N(C)C)cc2c1=O (stereo unspecified),0.718

row,Structure (SMILES),z-score
1,O=C(O)c1cccc(NS(=O)(=O)c2ccc3nnn(O)c3c2)c1,0.0264
2,C/C(=N\N=C(/N)SC1CC(=O)N(c2ccc(Cl)c(Cl)c2)C1=O)c1cccs1 (stereo unspecified),0.068
3,COc1ccc(NC(=O)Cn2c(-c3ccc(OC)cc3)cn(-c3ccc(C)cc3)c2=O)cc1,0.0343
4,O=S(=O)(Nc1cccc(-c2cn3cccnc3n2)c1)c1ccc(-c2ccccc2)cc1,-0.14
5,CC(C)NC(=O)c1onc(CSc2cccc(Cl)c2)c1C(=O)O,-0.616
6,O=C(CSc1nnc(-c2cccnc2)o1)OC1CCCCC1,0.233
7,COc1ccc(/C=N\NC(=O)C2C(=O)NCC2c2ccccc2)cc1O (stereo unspecified),-0.454
8,Fc1ccc(NC(=S)N2CCCC2)cc1,-0.0754
9,CSc1ncccc1C(=O)OCC(=O)N1CCOCC1,-0.0296
10,CCOC(=O)c1c(C)c(-c2ccccc2)n(CC(=O)N2CCCC2)c1C,-0.879
11,COc1ccc(-n2c(COc3cccc4ccccc34)nnc2SCC#N)cc1,0.112
12,COc1cc(-c2nc3cnccn3c2Nc2ccccc2)ccc1O,-1.02
13,CC(C)C(=O)Nc1ccc(NC(=O)c2cccnc2)cn1,-0.133
14,Cc1ccc(S(=O)(=O)N(CC(=O)NCc2ccco2)Cc2ccc(F)cc2)cc1,1.39
15,O=C(c1ccc(Br)o1)N1CCCc2ccccc21,-0.269
16,COCCn1c(SCC(=O)N2CC(=O)Nc3ccccc32)nnc1-c1ccoc1C,-1.06
17,Cc1ccc(NC(=O)c2ccc(C#CC3(O)CCCCC3)cc2)cc1C,0.0635
18,Cc1sc(NC(=O)c2ccc(OCC(C)C)cc2)c(C(N)=O)c1-c1ccc(Cl)cc1Cl,-0.467
19,O=C(CCCCCCN1C(=O)c2ccccc2C1=O)N1CCC(c2ccccc2)C1 (stereo unspecified),-0.18

row,Structure (SMILES),z-score
1,CC1(C)CC(CC(=O)O)C(=O)O1 (stereo unspecified),-0.0347
2,Cc1ccc(NC(=O)CSc2ncccc2C(=O)Oc2cccc([N+](=O)[O-])c2)cc1Cl,0.00133
3,CCNS(=O)(=O)c1cc(Br)ccc1OC,0.208
4,CC(C)=CC(=O)OCC(=O)NC(=O)NC(C)(C)C,0.42
5,COc1nc(-c2ccccc2)cc(C(F)(F)F)n1,0.0363
6,CN(C)c1nc(-c2ccccc2)nnc1C(F)(F)F,-0.148
7,CS(=O)(=O)c1nc(-c2ccccc2)cc(-c2ccccc2)c1C#N,-0.425
8,O=C(Cn1nnc(-c2ccccc2)n1)N=Nc1c(O)[nH]c2ccccc12,-0.0918
9,O=[N+]([O-])c1cc(C(F)(F)F)ccc1N/N=C/c1cc2ccccc2nc1Cl,0.0742
10,COc1ccc(C2=NOC(C(=O)Nc3c(C)n(C)n(-c4ccccc4)c3=O)C2)cc1OC (stereo unspecified),0.047
11,COC(=O)CSc1ccccc1C(=O)OC,0.099
12,CCCCSc1nnc(-c2cc3c(C(F)(F)F)nn(C)c3s2)n1C,-0.355
13,COc1ccc2cnn(-c3ccc(C)cc3)c(=O)c2c1OC,0.631
14,CCN(C(=O)Cc1cccs1)c1nnc(-c2cccnc2)s1,-0.0591
15,CCOC(=O)NNC(=O)c1ccc(Cl)cc1,-0.178
16,COc1ccccc1N1CCN(C(=O)CCNS(=O)(=O)c2ccc3c(c2)CCC(=O)N3)CC1,-0.0767
17,Cc1cc2oc(=O)cc(CN3CCN(S(=O)(=O)c4cccs4)CC3)c2cc1C(C)C,-0.253
18,CC1(C)Cc2ccccc2-c2nnc(-c3cccc(O)c3)n21,-0.189
